Test results reported in the supplement of paper PMC11876631.
Changes are numbered by the printed parent chain. In names and notes the source's numbering stands. ± gives the standard deviation of the averaged measurements. Laboratory Escherichia coli strains with one amino-acid change in an essential protein, pooled on minimal glucose agar with carbenicillin or gentamicin at twice the control MIC (plus kanamycin and chloramphenicol for the plasmids), 48 h. Fold change of barcode share against drug-free plates; higher = less susceptible. Active = above 20 in both replicates (the paper's putatively resistant). '<' = one read or none on drug, '>' = one read or none on a drug-free plate. Shares are relative, so most strains fall below 1 when a few take over. Listed are strains with at least 15 reads on both drug-free plates, and hits; most hits rest on fewer reference reads. Replicate rank correlation about 0.5. Edits are read from barcodes.

B1: hisH V4A (protein)
chain: MNVAILDTGCANLNSVKSAIARHGYEPKVSRDPDVVLLADKLFLPGVGTAQAAMDQVRERELFDLIKACTQPVLGICLGMQLLGRRSEESNGVDLLGIIDEDVPKMTDFGLPLPHMGWNRVYPQAGNRLFQGIEDGAYFYFVHSYAMPVNPWTIAQCNYGEPFTAAVQKDNFYGVQFHPERSGAAGAKLLKNFLEM
B2: hisH I5Q (protein)
chain: B1 chain with A4V, I5Q
B3: hisH I5A (protein)
chain: B1 chain with A4V, I5A
B4: hisH I5W (protein)
chain: B1 chain with A4V, I5W
B5: hisH L6A (protein)
chain: B1 chain with A4V, L6A
B6: hisH V4Q (protein)
chain: B1 chain with A4Q
B7: hisH V4D (protein)
chain: B1 chain with A4D
B8: hisH V4P (protein)
chain: B1 chain with A4P
B9: hisG M11Q (protein)
chain: MTDNTRLRIAQQKSGRLSDDSRELLARCGIKINLHTQRLIAMAENMPIDILRVRDDDIPGLVMDGVVDLGIIGENVLEEELLNRRAQGEDPRYFTLRRLDFGGCRLSLATPVDEAWDGPLSLNGKRIATSYPHLLKRYLDQKGISFKSCLLNGSVEVAPRAGLADAICDLVSTGATLEANGLREVEVIYRSKACLIQRDGEMEESKQQLIDKLLTRIQGVIQARESKYIMMHAPTERLDEVIALLPGAERPTILPLAGDQQRVAMHMVSSETLFWETMEKLKALGASSILVLPIEKMME
B10: hisG L134A (protein)
chain: B9 chain with Q11M, L134A

Target: Escherichia coli (laboratory strain)
Assay: barcode share on antibiotic plates over drug-free plates; higher = less susceptible
Method: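 A pool of E. coli strains, each edited to carry one amino-acid change in an essential protein, was grown for 48 h on minimal glucose agar with or without antibiotic; strain barcodes were sequenced; mean of two replicates.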

[1] = antibiotic: carbenicillin, 2× MIC (3.1 µg/mL)
[2] = antibiotic: gentamicin, 2× MIC (MIC 0.45 µg/mL)

Row | Protein | fold change of barcode share [1] | fold change of barcode share [2]
1 | B1 | 0.749 ± 0.067 | < 0.00392
2 | B2 | > 27.4 [active] | –
3 | B3 | > 52.5 [active] | –
4 | B4 | > 42.3 [active] | –
5 | B5 | 0.601 ± 0.17 | 0.00896 ± 0.0012
6 | B6 | 0.826 ± 0.14 | 0.013 ± 0.0097
7 | B7 | 99.5 [active] | –
8 | B8 | > 178 [active] | –
9 | B9 | 0.632 ± 0.16 | < 0.00614
10 | B10 | 0.532 ± 0.33 | < 0.018
